T1: RBFOX1 RRM RbFoxmut (Fox-RRM*) (Homo sapiens, UniProt Q9NWB1 109-208, R118D;E147R;N151S;E152T)
T1 sequence: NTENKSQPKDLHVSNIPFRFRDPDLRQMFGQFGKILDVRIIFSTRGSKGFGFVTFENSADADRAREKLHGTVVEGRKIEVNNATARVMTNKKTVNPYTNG

B1: CAUGAGU (DNA:RNA)
RNA: GGGAGACCGGAAUUCAGAUUGUCCCAUGAGUUUAAAUCCCGUCGUAGCCACCA
DNA 1: CAATCTGAATTCCGGTCTCCC
DNA 2: TGGTGGCTACGACGGGATT
B2: AGUGUCG (DNA:RNA)
RNA: B1 RNA with C25A, A26G, A29U, G30C, U31G
DNA 1: CAATCTGAATTCCGGTCTCCC
DNA 2: TGGTGGCTACGACGGGATT
B3: GCGCAUA (DNA:RNA)
RNA: B1 RNA with C25G, A26C, U27G, G28C, G30U, U31A
DNA 1: CAATCTGAATTCCGGTCTCCC
DNA 2: TGGTGGCTACGACGGGATT
B4: GCGGGCA (DNA:RNA)
RNA: B1 RNA with C25G, A26C, U27G, A29G, G30C, U31A
DNA 1: CAATCTGAATTCCGGTCTCCC
DNA 2: TGGTGGCTACGACGGGATT
B5: UGAUUCC (DNA:RNA)
RNA: GGGAGACCGGAAUUCAGAUUGUCCUGAUUCCUUAAAUCCCGUCGUAGCCACCA
DNA 1: CAATCTGAATTCCGGTCTCCC
DNA 2: TGGTGGCTACGACGGGATT
B6: UGCAAGG (DNA:RNA)
RNA: B1 RNA with C25U, A26G, U27C, G28A, U31G
DNA 1: CAATCTGAATTCCGGTCTCCC
DNA 2: TGGTGGCTACGACGGGATT
B7: CGUAUCU (DNA:RNA)
RNA: B1 RNA with A26G, G28A, A29U, G30C
DNA 1: CAATCTGAATTCCGGTCTCCC
DNA 2: TGGTGGCTACGACGGGATT
B8: AAAGGUG (DNA:RNA)
RNA: B1 RNA with C25A, U27A, A29G, G30U, U31G
DNA 1: CAATCTGAATTCCGGTCTCCC
DNA 2: TGGTGGCTACGACGGGATT
B9: UUACGCA (DNA:RNA)
RNA: B5 RNA with G26U, U28C, U29G, C31A
DNA 1: CAATCTGAATTCCGGTCTCCC
DNA 2: TGGTGGCTACGACGGGATT
B10: GCAGAAU (DNA:RNA)
RNA: B1 RNA with C25G, A26C, U27A, G30A
DNA 1: CAATCTGAATTCCGGTCTCCC
DNA 2: TGGTGGCTACGACGGGATT
B11: AAACGGC (DNA:RNA)
RNA: B1 RNA with C25A, U27A, G28C, A29G, U31C
DNA 1: CAATCTGAATTCCGGTCTCCC
DNA 2: TGGTGGCTACGACGGGATT
B12: CUCCAUA (DNA:RNA)
RNA: B1 RNA with A26U, U27C, G28C, G30U, U31A
DNA 1: CAATCTGAATTCCGGTCTCCC
DNA 2: TGGTGGCTACGACGGGATT
B13: GAGCUCA (DNA:RNA)
RNA: B5 RNA with U25G, G26A, A27G, U28C, C31A
DNA 1: CAATCTGAATTCCGGTCTCCC
DNA 2: TGGTGGCTACGACGGGATT
B14: AAUCGUG (DNA:RNA)
RNA: B1 RNA with C25A, G28C, A29G, G30U, U31G
DNA 1: CAATCTGAATTCCGGTCTCCC
DNA 2: TGGTGGCTACGACGGGATT
B15: CUGUCGA (DNA:RNA)
RNA: B1 RNA with A26U, U27G, G28U, A29C, U31A
DNA 1: CAATCTGAATTCCGGTCTCCC
DNA 2: TGGTGGCTACGACGGGATT
B16: AUAGGCU (DNA:RNA)
RNA: B1 RNA with C25A, A26U, U27A, A29G, G30C
DNA 1: CAATCTGAATTCCGGTCTCCC
DNA 2: TGGTGGCTACGACGGGATT
B17: AGGCUUC (DNA:RNA)
RNA: B5 RNA with U25A, A27G, U28C, C30U
DNA 1: CAATCTGAATTCCGGTCTCCC
DNA 2: TGGTGGCTACGACGGGATT
B18: UCCAUAA (DNA:RNA)
RNA: B5 RNA with G26C, A27C, U28A, C30A, C31A
DNA 1: CAATCTGAATTCCGGTCTCCC
DNA 2: TGGTGGCTACGACGGGATT
B19: CAGUGAU (DNA:RNA)
RNA: B1 RNA with U27G, G28U, A29G, G30A
DNA 1: CAATCTGAATTCCGGTCTCCC
DNA 2: TGGTGGCTACGACGGGATT
B20: GGAAAGG (DNA:RNA)
RNA: B1 RNA with C25G, A26G, U27A, G28A, U31G
DNA 1: CAATCTGAATTCCGGTCTCCC
DNA 2: TGGTGGCTACGACGGGATT
B21: GCAGGAG (DNA:RNA)
RNA: B1 RNA with C25G, A26C, U27A, A29G, G30A, U31G
DNA 1: CAATCTGAATTCCGGTCTCCC
DNA 2: TGGTGGCTACGACGGGATT
B22: AAGGUAG (DNA:RNA)
RNA: B1 RNA with C25A, U27G, A29U, G30A, U31G
DNA 1: CAATCTGAATTCCGGTCTCCC
DNA 2: TGGTGGCTACGACGGGATT
B23: AUCGACU (DNA:RNA)
RNA: B1 RNA with C25A, A26U, U27C, G30C
DNA 1: CAATCTGAATTCCGGTCTCCC
DNA 2: TGGTGGCTACGACGGGATT
B24: UGGGUUC (DNA:RNA)
RNA: B5 RNA with A27G, U28G, C30U
DNA 1: CAATCTGAATTCCGGTCTCCC
DNA 2: TGGTGGCTACGACGGGATT
B25: AAGAUUC (DNA:RNA)
RNA: B5 RNA with U25A, G26A, A27G, U28A, C30U
DNA 1: CAATCTGAATTCCGGTCTCCC
DNA 2: TGGTGGCTACGACGGGATT
B26: ACUGAAC (DNA:RNA)
RNA: B1 RNA with C25A, A26C, G30A, U31C
DNA 1: CAATCTGAATTCCGGTCTCCC
DNA 2: TGGTGGCTACGACGGGATT
B27: UUAGUAC (DNA:RNA)
RNA: B5 RNA with G26U, U28G, C30A
DNA 1: CAATCTGAATTCCGGTCTCCC
DNA 2: TGGTGGCTACGACGGGATT
B28: AUUCAGU (DNA:RNA)
RNA: B1 RNA with C25A, A26U, G28C
DNA 1: CAATCTGAATTCCGGTCTCCC
DNA 2: TGGTGGCTACGACGGGATT
B29: AUGUGGU (DNA:RNA)
RNA: B1 RNA with C25A, A26U, U27G, G28U, A29G
DNA 1: CAATCTGAATTCCGGTCTCCC
DNA 2: TGGTGGCTACGACGGGATT
B30: UCAUCUA (DNA:RNA)
RNA: B5 RNA with G26C, U29C, C30U, C31A
DNA 1: CAATCTGAATTCCGGTCTCCC
DNA 2: TGGTGGCTACGACGGGATT
B31: CCAAACU (DNA:RNA)
RNA: B1 RNA with A26C, U27A, G28A, G30C
DNA 1: CAATCTGAATTCCGGTCTCCC
DNA 2: TGGTGGCTACGACGGGATT

31 molecules from article PMC9911399, “Two distinct binding modes provide the RNA-binding protein RbFox with extraordinary sequence specificity” can be followed below.

Numbering of substitutions follows the chain as printed; changes in the protein carry UniProt numbers. The list shows a part of the results.

The assay concerns the target T1, RBFOX1 RRM RbFoxmut (Fox-RRM*). As to the kind of experiment: EMSA; HiTS-Eq, 1 nM pool, 10 min; buffer printed only for the single-RNA assays: 10 mM Tris pH 7.5, 150 mM NaCl, 3.4 mM EDTA, 0.001% NP-40, 30 C. The following applies: tags: His6 N-terminal (pET28a); label: 5' 32P. The procedure, abridged:
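Purified wild-type or mutant RbFox RRM at increasing concentrations was equilibrated with 1 nM of 5′-radiolabelled RNA carrying 7 randomized nucleotides for 10 min in 50 µL. Unbound RNA was separated by 8% native PAGE and sequenced. Relative association constants came from read-count changes of each RNA species compared with the control reaction, normalised to the cognate motif.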
Turning to B1, the binding signal is 0.149 KA relative to UGCAUGU. The figure for B2 is 0.141 KA relative to UGCAUGU. Under B3 stands 0.152 KA relative to UGCAUGU; under B4, 0.0836 KA relative to UGCAUGU. Regarding B5, the binding signal was 0.0628 KA relative to UGCAUGU.

As to B6, the binding signal was 0.0807 KA relative to UGCAUGU.

On to B7, for which the binding signal was 0.125 KA relative to UGCAUGU.

With B8, the binding signal is 0.104 KA relative to UGCAUGU. Regarding B9, the binding signal was 0.13 KA relative to UGCAUGU. As to B10, the binding signal was 0.148 KA relative to UGCAUGU. The figure for B11 is 0.085 KA relative to UGCAUGU; for B12 it is 0.103 KA relative to UGCAUGU; for B13 it is 0.0778 KA relative to UGCAUGU.

On to B14, for which the binding signal is 0.0974 KA relative to UGCAUGU.

With B15, the binding signal was 0.0775 KA relative to UGCAUGU. The figure for B16 is 0.103 KA relative to UGCAUGU; for B17 it is 0.111 KA relative to UGCAUGU. The figure for B18 is 0.0804 KA relative to UGCAUGU; for B19 it is 0.0883 KA relative to UGCAUGU. B20: the binding signal is 0.0622 KA relative to UGCAUGU. The figure for B21 is 0.0994 KA relative to UGCAUGU. The figure for B22 is 0.144 KA relative to UGCAUGU; for B23 it is 0.0688 KA relative to UGCAUGU; for B24 it is 0.177 KA relative to UGCAUGU. Under B25 stands 0.11 KA relative to UGCAUGU.

In the case of B26, the binding signal is 0.0674 KA relative to UGCAUGU. Consider B27, for which the binding signal is 0.102 KA relative to UGCAUGU. The figure for B28 is 0.0935 KA relative to UGCAUGU; for B29 it is 0.16 KA relative to UGCAUGU. Under B30 stands 0.109 KA relative to UGCAUGU; under B31, 0.0717 KA relative to UGCAUGU.
